# According to PubChem BioAssay AID2546 (National Center for Advancing Translational Sciences (NCATS), 2010):
# Several values for one entry are separate records, joined by “and”; a condition that tells them apart may be missing. Equal entries are not always repeated. About 11,000 (3.5%) of roughly 310,000 compounds were called active. The inconclusive results got no clear call from the source; some entries with a clear call stand among them for comparison. The call rests on the fitted dose curve; in most records, active means well fitted inhibition curve with a large enough effect; inconclusive means small, poorly fitted or top-dose-only effect, or effect the other way; inactive means flat fitted curve, though single readings scatter. Where the call is inconclusive, the potency comes from a doubtful curve fit.
# Test: VP16 counterscreen qHTS for inhibitors of ROR gamma transcriptional activity;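 further: Gal4-VP16 expression switched on by copper sulfate through the metallothionein promoter; nearly all actives have a fitted effect of over 50% in size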
# Conditions: Drosophila S2 Gal4-VP16 UAS-luciferase, luminescence, 20 h; series mostly up to 53.6 µM
# Potency means the concentration at half of the fitted maximal effect; tags describe the fitted curve by direction and shape.
row,SMILES,Potency
1,COc1ccc(C(C(=O)NC2CCCCC2)N(C(=O)c2sc(C)nc2C)c2ccccc2)cc1 (configuration not stated),"inconclusive: 5.62 µM [activator, single point]"
2,COc1ccc2c(c1)C(=O)[C@H](OC(=O)NS(=O)(=O)c1ccc(C)cc1)[C@@H](c1ccc(OC)c(Br)c1)O2,"inconclusive: 35.5 µM [inhibitor, single point]"
3,CC1=CC2=NC(=O)/C(=C\c3cccn3CCOc3cc(C)ccc3C)C(=N)N2O1,"inconclusive: 35.5 µM [inhibitor, single point]"
4,CC(=O)c1c(C)oc2c1C(=O)c1ccccc1C2=O,active: 15.8 µM
5,O=C(CN1/C(=C(/O)c2ccccc2)C(=O)c2ccccc2S1(=O)=O)c1ccccc1,"inconclusive: 35.5 µM [inhibitor, single point]"
6,Cc1cc(Cl)ccc1OCC(=O)NNC(=O)c1cnccn1,"inconclusive: 35.5 µM [inhibitor, single point]"
7,C=C(C)/C=N/NC(=S)Nc1ccc(S(=O)(=O)N2CCOCC2)cc1,"inconclusive: 35.5 µM [inhibitor, single point]"
8,O=C(NC(=S)Nc1ccc([N+](=O)[O-])cc1O)C1CCCCC1,"inconclusive: 35.5 µM [inhibitor, single point]"
9,NC(=S)N/N=C/c1ccc(-c2ccccc2)o1,active: 5.01 µM
10,CC1=CC(C)(C)[N+](C)(C)c2ccc(C)cc21,inactive
11,C/C(=N\NC(=O)c1cccc(F)c1)c1ccc(Br)s1,active: 1.26 µM
12,COc1ccccc1OCC(=O)NCC1CCCN(C(=O)c2ccccc2C(C)=O)C1 (configuration not stated),inactive
13,Cc1coc2c(O)cc3c(c12)OC1(N2CCCCC2)C(=O)NCCCC31 (configuration not stated),"inconclusive: 7.94 µM [inhibitor, single point]"
14,CCC(C)(C)NC(=O)C(c1ccc(F)cc1)N(Cc1ccc(OC)cc1)C(=O)c1cnccn1 (configuration not stated),"inconclusive: 35.5 µM [activator, single point]"
15,CCn1c(Cc2ccc(OC)cc2)nc2ccccc21,active: 35.5 µM
16,O=C(N/N=C/c1ccc(N2CCOCC2)o1)c1cccc(C(F)(F)F)c1,active: 3.98 µM
17,O=C1c2ccccc2-c2onc3ccc(NCCCn4ccnc4)c1c23,inactive
18,CN(c1ccccc1)S(=O)(=O)c1cccc(NC(=O)CSc2ncn[nH]2)c1,"inconclusive: 2.51 µM [inhibitor, partial curve]"
19,O=C(CCCn1c(=S)[nH]c2cc3c(cc2c1=O)OCO3)N1CCN(c2ccccc2F)CC1,active: 7.94 µM
20,O=C(O)CCn1cc(/C=C\C(=O)c2ccc(Cl)cc2)c(-c2cccc(Br)c2)n1,"inconclusive: 35.5 µM [inhibitor, single point]"
21,CC(C)COc1ccc(C/C(N)=N/n2cnnc2)cc1,"inconclusive: 25.1 µM [inhibitor, single point]"
22,CC(C)(C)C(=O)O/N=C(\N)Cc1ccc(-c2csnn2)cc1,"inconclusive: 14.1 µM [inhibitor, single point]"
23,Cc1ccccc1NC(=S)Nc1ccccc1,"inconclusive: 35.5 µM [inhibitor, single point]"
24,Cc1[nH]c2ccccc2c1/C=N/Nc1nc(Nc2ccc(F)cc2)nc(N2CCOCC2)n1,active: 5.62 µM

row,SMILES,Potency
1,O=C(N/N=C/c1ccc2ncccc2c1)c1ccco1,"inconclusive: 3.55 µM [inhibitor, partial curve, poor fit]"
2,CC[C@@H](C)[C@H](CN[C@H](CNC)C(C)C)NC[C@@H](C)c1ccc(CC(C)C)cc1,"inconclusive: 25.1 µM [inhibitor, single point]"
3,Brc1ccccc1Cn1cnc2ccccc21,"inconclusive: 35.5 µM [inhibitor, single point]"
4,O=C(Cc1ccc(S(=O)(=O)N2CCCC2)s1)Nc1nc2c(s1)CCCC2,"inconclusive: 31.6 µM [activator, single point]"
5,Cc1ccc(C(=O)NC2=NCCS2)cc1Cl,"inconclusive: 31.6 µM [inhibitor, single point]"
6,CC(C)CCN1CC(O)=C(c2nc3ccccc3[nH]2)C1=N,"inconclusive: 35.5 µM [inhibitor, single point]"
7,O=C(Cc1ccc(NC2=NC3CS(=O)(=O)CC3S2)cc1)NCc1ccc(Cl)cc1 (configuration not stated),inactive
8,CCOc1ccc2nc(SCC(=O)c3ccc(O)cc3O)sc2c1,"inconclusive: 10 µM [inhibitor, partial curve]"
9,COc1ccc(/C=N/N2C(=N)SCC2=O)cc1,inactive
10,Cc1cccc(Nc2cc(C)c3c(O)cccc3n2)c1C,"inconclusive: 35.5 µM [inhibitor, single point]"
11,Cc1cc2nc(-c3ccc[nH]c3=O)[nH]c2cc1C,active: 6.31 µM
12,O=C(N/N=C1\CCSc2ccc(F)cc21)c1cccnc1,inactive
13,O=C(N/N=C/c1cc([N+](=O)[O-])ccc1O)/C(=C\c1cccs1)NC(=O)c1ccccc1,active: 10 µM
14,CCCCN(C)C(=O)C1CCC(CNS(=O)(=O)c2ccc3c(c2)CC(C)N3C(=O)C2CC2)CC1 (configuration not stated),"inconclusive: 35.5 µM [inhibitor, single point]"
15,COCCCNC(=S)N1CCN(c2nc(-c3ccccc3)cs2)CC1,"inconclusive: 35.5 µM [inhibitor, single point]"
16,Cc1cc(C)c2c(=O)n(CC(=O)N3CCC(N4CCCCC4)CC3)sc2n1,"inconclusive: 25.1 µM [inhibitor, single point]"
17,CC1=CC(C)(C)n2c(O)c(N=NC(N)=S)c3c(C)c(C)cc1c32,inactive
18,COC(=O)[C@@]1(Cc2ccccc2)[C@@H]2C(=CC(=O)[C@H]2CC(=O)C(=O)N(C)C)CN1C(=O)c1ccccc1,"inconclusive: 20 µM [inhibitor, single point] and inconclusive: 35.5 µM [inhibitor, single point]"
19,Cc1cc(C(=O)NC2CCCc3c2cnn3-c2cccc(C)c2C)n(C)n1 (configuration not stated),active: 2.24 µM
20,Cc1ccc(S(=O)(=O)c2c(C)c(C)c(C)[nH]c2=O)cc1,inactive
21,Cc1ccc(-c2cc(-c3ccc4c(c3)OCO4)c(C#N)c(N)n2)o1,"inconclusive: 35.5 µM [inhibitor, single point]"
22,Clc1ccc2c(c1)[C@H]1OCC[C@H]1[C@@H](c1ccco1)N2,inactive
23,Cc1c(CCC(C)C)c(=O)n2c([nH]c3ccccc32)c1C#N,inactive
24,CCN(CC)c1ccc(Nc2nc(N3CCOCC3)c3ccccc3n2)cc1,active: 11.2 µM

row,SMILES,Potency
1,O=c1c2ccccc2nc(-c2ccccc2Cl)n1O,"inconclusive: 35.5 µM [inhibitor, single point]"
2,COc1ccc(N2CCN(S(=O)(=O)c3ccc(-n4cnnn4)c(C)c3)CC2)cc1,"inconclusive: 5.62 µM [activator, single point]"
3,CC(=O)c1ccc(N2CCN(C(=O)CCS(=O)(=O)c3ccc4c(c3)NC(=O)CS4)CC2)cc1,"inconclusive: 35.5 µM [inhibitor, single point]"
4,CN(C(=O)CCc1nnc(CCCCc2ccccc2)o1)C1CC(C)(C)NC(C)(C)C1,active: 4.47 µM
5,COc1ccc(-c2cc(C(F)(F)F)nc(-n3ccnc3C)n2)cc1,"inconclusive: 12.6 µM [inhibitor, partial curve, poor fit]"
6,COc1ccc(CCNC(=S)Nc2cccc(C)c2C)cc1,active: 7.94 µM
7,Cc1ccc(Sc2ccc([N+](=O)[O-])cc2[N+](=O)[O-])nc1,"inconclusive: 20 µM [inhibitor, single point]"
8,CCc1cccc2c(/C=N/NC(=O)c3cccc(S(=O)(=O)Nc4ccccc4Cl)c3)c[nH]c12,"inconclusive: 35.5 µM [inhibitor, single point]"
9,CC(C)(C)N(Cc1ccccc1)C(=O)CCc1ccccc1,"inconclusive: 35.5 µM [inhibitor, single point]"
10,COCCCNC(=S)Nc1ccc(S(=O)(=O)Nc2cc(OC)nc(OC)n2)cc1,inactive
11,CCOC(=O)c1c(NC(=O)C2=C(C)NC(=S)NC2c2ccc(CC)cc2)sc(C)c1C (configuration not stated),active: 7.94 µM
12,O=C(Nc1cccc([N+](=O)[O-])c1)C1COc2ccccc2O1 (configuration not stated),"inconclusive: 15.8 µM [activator, single point]"
13,CCC(C)Nc1nc(N)c([N+](=O)[O-])c(Nc2ccccc2OC)n1 (configuration not stated),inactive
14,NNc1nc2c(Cl)cccc2s1,"inconclusive: 35.5 µM [inhibitor, single point]"
15,Cc1ccc(NC(=O)Cn2ncc3ccccc32)c(Cl)c1,"inconclusive: 2.82 µM [activator, single point]"
16,CCn1cc(CNc2nc3nonc3nc2N2CCCCC2)cn1,"inconclusive: 15.8 µM [inhibitor, single point]"
17,CN(Cc1ccco1)c1ncncc1-c1cccc(NS(C)(=O)=O)c1,inactive
18,CCCOc1ccccc1N/C(=N/c1nc(C)cc(C)n1)NC(=O)COc1ccc(OC)cc1,"inconclusive: 35.5 µM [inhibitor, single point]"
19,Cc1ccc(C(c2nnnn2C(C)(C)C)N(Cc2ccco2)Cc2cccs2)cc1 (configuration not stated),active: 7.08 µM
20,COc1ccccc1NC(=S)NC1CCCCC1,active: 20 µM
21,Cc1cc(-c2c(C)[nH]n(-c3ccc(Cl)cc3)c2=O)n[nH]1,active: 0.631 µM
22,Cc1c(C(=O)NNC(=S)NCc2ccc(Cl)cc2)oc2ccccc12,"inconclusive: 35.5 µM [inhibitor, single point]"
23,CCOC(=O)C1CCN(c2cc3c(cc2NC(=O)c2ccccc2)n(C)c(=O)n3C)CC1,inactive
24,O=C(CCc1ccc(S(=O)(=O)N2CCOCC2)cc1)Nc1nc(COc2ccccc2)cs1,"inconclusive: 17.8 µM [inhibitor, single point]"
